Measurements taken from the supplement of paper PMC8728848.
The list shows a part of the results.

Legend:
Assay in all cases: glycan array binding signal (z-score within array); higher = stronger binding
Conditions in all cases: glycan notation: IUPAC condensed, linker removed
[1] = target: Gal(b1-3)GlcNAc(b1-2)Man(a1-3)[Gal(b1-3)GlcNAc(b1-2)Man(a1-6)]Man(b1-4)GlcNAc(b1-4)[Fuc(a1-6)]GlcNAc
How it was run: (§1)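 From the Consortium for Functional Glycomics database, 3228 arrays were curated, keeping only those whose protein sequence was available. Binding is given as a within-array Z-score averaged across arrays sharing a protein sequence and across linkers. Negative Z-scores can be read as non-binding.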

[2] = target: Gal(b1-3)GlcNAc(b1-2)Man(a1-3)[GlcNAc(b1-4)][Gal(b1-3)GlcNAc(b1-2)Man(a1-6)]Man(b1-4)GlcNAc(b1-4)GlcNAc
How it was run: as §1

[3] = target: Gal(b1-3)GlcNAc(b1-2)[Gal(b1-3)GlcNAc(b1-6)]Man(a1-6)[Gal(b1-3)GlcNAc(b1-2)Man(a1-3)]Man(b1-4)GlcNAc(b1-4)GlcNAc
How it was run: as §1

[4] = target: Gal(b1-3)GlcNAc(b1-3)Gal(b1-3)GlcNAc
How it was run: as §1

[5] = target: Gal(b1-3)GlcNAc(b1-3)Gal(b1-4)Glc
How it was run: as §1

[6] = target: Gal(b1-3)GlcNAc(b1-3)Gal(b1-4)GlcNAc
How it was run: as §1

[7] = target: Gal(b1-3)GlcNAc(b1-3)Gal(b1-4)GlcNAc(b1-2)Man(a1-3)[Gal(b1-3)GlcNAc(b1-3)Gal(b1-4)GlcNAc(b1-2)Man(a1-6)]Man(b1-4)GlcNAc(b1-4)GlcNAc
How it was run: as §1

[8] = target: Gal(b1-3)GlcNAc(b1-3)Gal(b1-4)GlcNAc(b1-2)[Gal(b1-3)GlcNAc(b1-3)Gal(b1-4)GlcNAc(b1-6)]Man(a1-6)[Gal(b1-3)GlcNAc(b1-3)Gal(b1-4)GlcNAc(b1-2)Man(a1-3)]Man(b1-4)GlcNAc(b1-4)[Fuc(a1-6)]GlcNAc
How it was run: as §1

[9] = target: Gal(b1-3)GlcNAc(b1-3)Gal(b1-4)GlcNAc(b1-3)Gal(b1-4)GlcNAc(b1-2)[Gal(b1-3)GlcNAc(b1-3)Gal(b1-4)GlcNAc(b1-3)Gal(b1-4)GlcNAc(b1-6)]Man(a1-6)[Gal(b1-3)GlcNAc(b1-3)Gal(b1-4)GlcNAc(b1-3)Gal(b1-4)GlcNAc(b1-2)Man(a1-3)]Man(b1-4)GlcNAc(b1-4)[Fuc(a1-6)]GlcNAc
How it was run: as §1

[10] = target: Gal(b1-3)GlcNAc(b1-3)Gal(b1-4)GlcNAc(b1-6)[Gal(b1-3)GlcNAc(b1-3)]Gal(b1-4)Glc
How it was run: as §1

[11] = target: Gal(b1-3)GlcNAc(b1-3)Gal(b1-4)[Fuc(a1-3)]GlcNAc
How it was run: as §1

[12] = target: Gal(b1-3)GlcNAc(b1-3)Gal(b1-4)[Fuc(a1-3)]GlcNAc(b1-6)[Gal(b1-3)GlcNAc(b1-3)]Gal(b1-4)Glc
How it was run: as §1

[13] = target: Gal(b1-3)GlcNAc(b1-3)GalNAc
How it was run: as §1

[14] = target: Gal(b1-3)GlcNAc(b1-6)Gal(b1-4)GlcNAc
How it was run: as §1

[15] = target: Gal(b1-3)GlcNAc(b1-6)GalNAc
How it was run: as §1

[16] = target: Gal(b1-3)GlcNAc(b1-6)[Gal(b1-3)]GalNAc
How it was run: as §1

Gal(b1-3)GlcNAc6S = target: Gal(b1-3)GlcNAc6S
How it was run: as §1

[17] = target: Gal(b1-3)[Fuc(a1-4)]GlcNAc
How it was run: as §1

[18] = target: Gal(b1-3)[Fuc(a1-4)]GlcNAc(b1-2)Man
How it was run: as §1

[19] = target: Gal(b1-3)[Fuc(a1-4)]GlcNAc(b1-2)Man(a1-3)[Gal(b1-3)[Fuc(a1-4)]GlcNAc(b1-2)Man(a1-6)]Man(b1-4)GlcNAc(b1-4)[Fuc(a1-6)]GlcNAc
How it was run: as §1

[20] = target: Gal(b1-3)[Fuc(a1-4)]GlcNAc(b1-3)Gal(b1-3)[Fuc(a1-4)]GlcNAc
How it was run: as §1

[21] = target: Gal(b1-3)[Fuc(a1-4)]GlcNAc(b1-3)Gal(b1-4)[Fuc(a1-3)]GlcNAc
How it was run: as §1

[22] = target: Gal(b1-3)[Fuc(a1-4)]GlcNAc(b1-6)GalNAc
How it was run: as §1

[23] = target: Gal(b1-3)[GlcNAc(b1-6)]GalNAc
How it was run: as §1

[24] = target: Gal(b1-3)[Neu5Ac(a2-6)]GalNAc
How it was run: as §1

[25] = target: Gal(b1-3)[Neu5Ac(a2-6)]GlcNAc(b1-4)Gal(b1-4)Glc
How it was run: as §1

[26] = target: Gal(b1-3)[Neu5Ac(b2-6)]GalNAc
How it was run: as §1

Gal(b1-4)Gal = target: Gal(b1-4)Gal
How it was run: as §1

[27] = target: Gal(b1-4)GalNAc(a1-3)[Fuc(a1-2)]Gal(b1-4)GlcNAc
How it was run: as §1

[28] = target: Gal(b1-4)GalNAc(b1-3)[Fuc(a1-2)]Gal(b1-4)GlcNAc
How it was run: as §1

Gal(b1-4)Glc = target: Gal(b1-4)Glc
How it was run: as §1

Gal(b1-4)Glc6S = target: Gal(b1-4)Glc6S
How it was run: as §1

Gal(b1-4)GlcNAc = target: Gal(b1-4)GlcNAc
How it was run: as §1

[29] = target: Gal(b1-4)GlcNAc(a1-6)Gal(b1-4)GlcNAc
How it was run: as §1

Gal(b1-4)GlcNAc(b1-2)Man = target: Gal(b1-4)GlcNAc(b1-2)Man
How it was run: as §1

[30] = target: Gal(b1-4)GlcNAc(b1-2)Man(a1-3)Man(b1-4)GlcNAc(b1-4)GlcNAc
How it was run: as §1

[31] = target: Gal(b1-4)GlcNAc(b1-2)Man(a1-3)[Gal(b1-4)GlcNAc(b1-2)Man(a1-6)]Man(b1-4)GlcNAc(b1-4)GlcNAc
How it was run: as §1

B1: Na-CTL-1 (Necator americanus) (protein)
chain: MQRSFLLLLVVLAGAWAVNTTIPLKLMGGFTPMKYQCVGRVSDIWADVLFLIESSDMITKSGFRQVIAFITATTKKMTIGQDEKQTRVGFITYGEEAKLIYDLDHWRSTEKLSDLVQKIPYVKSSGTNIAAAIALANKVFNSPTHRPNVPKVMVIVANGLKKGSQNPIPVATAFKDFGGIIITIEYTQYDNIQVPILKKIASEGYNIRSNDEDFSVRTLTNMLLQANCFCPDHYVPFRVNNPEFGCFVTAKIPSMWRDAAEMCRAVEEGKLVKVENEEKAAFIMKLVGPKKEAWIGLRYYGNKFQWTDGTKLNADDFNLWPEDIKELNGPHCVSMYQDQKDKKYYWRAGKCLEDMRYVCEVQPCSASNYCSEPVFMYRQKHRALLPAPPPPPN
glycan array binding signal (z-score) [1]: -0.447
glycan array binding signal (z-score) [2]: 0.605
glycan array binding signal (z-score) [3]: -0.149
glycan array binding signal (z-score) [4]: -0.262
glycan array binding signal (z-score) [5]: 0.182
glycan array binding signal (z-score) [6]: -0.383
glycan array binding signal (z-score) [7]: -0.217
glycan array binding signal (z-score) [8]: -0.231
glycan array binding signal (z-score) [9]: 1.66
glycan array binding signal (z-score) [10]: -0.326
glycan array binding signal (z-score) [11]: -0.53
glycan array binding signal (z-score) [12]: -0.259
glycan array binding signal (z-score) [13]: -0.531
glycan array binding signal (z-score) [14]: 0.325
glycan array binding signal (z-score) [15]: -0.394
glycan array binding signal (z-score) [16]: -0.451
glycan array binding signal (z-score) (Gal(b1-3)GlcNAc6S): -0.43
glycan array binding signal (z-score) [17]: -0.259
glycan array binding signal (z-score) [18]: 0.634
glycan array binding signal (z-score) [19]: 0.006
glycan array binding signal (z-score) [20]: 0.504
glycan array binding signal (z-score) [21]: -0.46
glycan array binding signal (z-score) [22]: 0.103
glycan array binding signal (z-score) [23]: 0.562
glycan array binding signal (z-score) [24]: -0.497
glycan array binding signal (z-score) [25]: 0.181
glycan array binding signal (z-score) [26]: -0.416
glycan array binding signal (z-score) (Gal(b1-4)Gal): -0.35
glycan array binding signal (z-score) [27]: -0.214
glycan array binding signal (z-score) [28]: -0.549
glycan array binding signal (z-score) (Gal(b1-4)Glc): -0.15
glycan array binding signal (z-score) (Gal(b1-4)Glc6S): -0.069
glycan array binding signal (z-score) (Gal(b1-4)GlcNAc): -0.255
glycan array binding signal (z-score) [29]: -0.635
glycan array binding signal (z-score) (Gal(b1-4)GlcNAc(b1-2)Man): 0.187
glycan array binding signal (z-score) [30]: -0.343
glycan array binding signal (z-score) [31]: -0.62
